According to article PMC6013238, “Development of novel NEMO-binding domain mimetics for inhibiting IKK/NF-κB activation” (PLoS Biology, 2018):
Results are given in words; binding and its absence hold for the method and conditions named. In cells and extracts the contact can be indirect. Some entries that bind do so weakly or less than the wild type.

Sequences of proteins named here, by UniProt entry; tags and fusion partners are left off.
UniProt Q9Z1E3: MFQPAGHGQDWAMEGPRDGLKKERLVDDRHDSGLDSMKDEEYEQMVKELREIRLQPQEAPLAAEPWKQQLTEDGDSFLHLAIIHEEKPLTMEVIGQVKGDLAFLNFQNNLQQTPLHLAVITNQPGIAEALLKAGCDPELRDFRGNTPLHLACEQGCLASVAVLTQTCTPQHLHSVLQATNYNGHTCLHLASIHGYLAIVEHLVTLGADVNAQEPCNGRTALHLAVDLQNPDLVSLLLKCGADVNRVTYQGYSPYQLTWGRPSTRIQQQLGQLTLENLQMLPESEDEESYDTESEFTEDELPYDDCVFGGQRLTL

T1: NF-κB essential modulator (NEMO) (mouse (endogenous in Raw 264.7)), O88522
T1 chain: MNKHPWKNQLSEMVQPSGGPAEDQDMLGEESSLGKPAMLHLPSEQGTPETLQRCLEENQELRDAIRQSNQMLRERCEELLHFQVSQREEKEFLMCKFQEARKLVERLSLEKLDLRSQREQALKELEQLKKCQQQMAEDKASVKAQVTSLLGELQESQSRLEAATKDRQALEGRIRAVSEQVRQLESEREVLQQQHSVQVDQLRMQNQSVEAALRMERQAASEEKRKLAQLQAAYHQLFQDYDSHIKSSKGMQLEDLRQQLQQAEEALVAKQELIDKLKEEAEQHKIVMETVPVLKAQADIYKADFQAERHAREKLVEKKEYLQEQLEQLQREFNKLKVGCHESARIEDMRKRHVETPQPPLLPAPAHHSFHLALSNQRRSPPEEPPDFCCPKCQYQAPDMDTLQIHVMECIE


Key:
[1] = target: NF-κB essential modulator (NEMO) (mouse (endogenous in Raw 264.7)) (UniProt O88522); assay: co-IP; NEMO immunoprecipitated (agarose-conjugated NEMO FL-419 antibody, 4 h, or antibody plus Dynabeads) at 4 °C from NP-40 lysates of Raw 264.7 cells; cells pretreated 30 min with DMSO, NBD mimetics (100 μM) or SR12343 (0, 25, 50, 100, 150 μM); blots for IKKβ, IKKα, TRAF2, IκBα
[2] = target: T1, NF-κB essential modulator (NEMO) (mouse …); assay: as above; conditions: remark: other sources report otherwise
[3] = target: NF-κB essential modulator (NEMO) (mouse (endogenous in Raw 264.7)) (UniProt O88522); assay: co-IP; Raw 264.7 cells pretreated 30 min with 8K-NBD peptide (400 μM), then NEMO immunoprecipitated from NP-40 lysate and blotted for IKKβ; only the binder purified

binding [1]	Molecule	also measured
no binding	IκBα (from UniProt Q9Z1E3 1-314)	–
–	TNF receptor-associated factor 2 (TRAF2), P39429 1-501 (protein) MAAASVTSPGSLELLQPGFSKTLLGTRLEAKYLCSACKNILRRPFQAQCGHRYCSFCLTSILSSGPQNCAACVYEGLYEEGISILESSSAFPDNAARREVESLPAVCPNDGCTWKGTLKEYESCHEGLCPFLLTECPACKGLVRLSEKEHHTEQECPKRSLSCQHCRAPCSHVDLEVHYEVCPKFPLTCDGCGKKKIPRETFQDHVRACSKCRVLCRFHTVGCSEMVETENLQDHELQRLREHLALLLSSFLEAQASPGTLNQVGPELLQRCQILEQKIATFENIVCVLNREVERVAVTAEACSRQHRLDQDKIEALSNKVQQLERSIGLKDLAMADLEQKVSELEVSTYDGVFIWKISDFTRKRQEAVAGRTPAIFSPAFYTSRYGYKMCLRVYLNGDGTGRGTHLSLFFVVMKGPNDALLQWPFNQKVTLMLLDHNNREHVIDAFRPDVTSSSFQRPVSDMNIASGCPLFCPVSKMEAKNSYVRDDAIFIKAIVDLTGL	binding [2]: no binding
–	KKKKKKKKGGTALDWSWLQTE [8K-NBD peptide]	binding [3]: binds
binds	IκB kinase β (IKKβ) (protein, UniProt O88351 1-757) MSWSPSLPTQTCGAWEMKERLGTGGFGNVIRWHNQATGEQIAIKQCRQELSPKNRNRWCLEIQIMRRLNHPNVVAARDVPEGMQNLAPNDLPLLAMEYCQGGDLRRYLNQFENCCGLREGAVLTLLSDIASALRYLHENRIIHRDLKPENIVLQQGEKRLIHKIIDLGYAKELDQGSLCTSFVGTLQYLAPELLEQQKYTVTVDYWSFGTLAFECITGFRPFLPNWQPVQWHSKVRQKSEVDIVVSEDLNGAVKFSSSLPFPNNLNSVLAERLEKWLQLMLMWHPRQRGTDPQYGPNGCFRALDDILNLKLVHVLNMVTGTVHTYPVTEDESLQSLKTRIQENTGILETDQELLQKAGLVLLPDKPATQCISDSKTNEGLTLDMDLVFLLDNSKINYETQITPRPPPESVSCILQEPKRNLSFFQLRKVWGQVWHSIQTLKEDCNRLQQGQRAAMMSLLRNNSCLSKMKNAMASTAQQLKAKLDFFKTSIQIDLEKYKEQTEFGITSDKLLLAWREMEQAVEQCGRENDVKHLVERMMALQTDIVDLQRSPMGRKQGGTLDDLEEQARELYRKLREKPRDQRTEGDSQEMVRLLLQAIQSFEKKVRVIYTQLSKTVVCKQKALELLPKVEEVVSLMNEDERTVVRLQEKRQKELWNLLKIACSKVRGPVSGSPDSMNVSRLSHPGQLMSQPSSACDSLPESDKKSEELVAEAHALCSRLESALQDTVKEQDRSFTTLDWSWLQMEDEERCSLEQACD	–
binds	IκB kinase α (IKKα) (protein, UniProt Q60680 1-745) MERPPGLRPGAGGPWEMRERLGTGGFGNVSLYQHRELDLKIAIKSCRLELSSKNRERWCHEIQIMKKLDHANVVKACDVPEELNFLINDVPLLAMEYCSGGDLRKLLNKPENCCGLKESQILSLLSDIGSGIRYLHENKIIHRDLKPENIVLQDVGGKTIHKIIDLGYAKDVDQGSLCTSFVGTLQYLAPELFENKPYTATVDYWSFGTMVFECIAGYRPFLHHLQPFTWHEKIKKKDPKCIFACEEMTGEVRFSSHLPQPNSLCSLIVEPMESWLQLMLNWDPQQRGGPIDLTLKQPRCFALMDHILNLKIVHILNMTSAKIISFLLPCDESLHSLQSRIERETGINTGSQELLSETGISLDPRKPASQCVLDGVRGCDSYMVYLFDKSKTVYEGPFASRSLSDCVNYIVQDSKIQLPIIQLRKVWAEAVHYVSGLKEDYSRLFQGQRAAMLSLLRYNANLTKMKNTLISASQQLKAKLEFFRKSIQLDLERYSEQMTYGISSEKMLKAWKEMEEKAIHYSEVGVIGYLEDQIMSLHTEIMELQKSPYGRRQGDLMESLEQRAIDLYKQLKHRPPDHLYSDSTEMVKIIVHTVQSQDRVLKELFGHLSKLLGCKQKIIDLLPKVEVALSNIKEADNTVMFMQGKRQKEIWHLLKIACTQSSARSLVGSSLEGTVTPPVSAWLPPTLADREHPLTCVVTPQDGETLAQMIEENLNCLGHLSTIIREANEDQSSSLMSLDWSWLAE	–
